Results as given in the supplement of paper PMC9151546.
Most values come without repeats; read them as rough.

What was measured:
CHO-K1 [1] = experiment: micronucleus frequency (% of nucleated events); higher = more micronuclei (genotoxic)
CHO-K1 [2] = experiment: hypodiploid nuclei frequency (% of nucleated events); higher = more hypodiploid events (aneugenic)
CHO-K1 [3] = experiment: relative survival (nuclei to bead ratio vs DMSO control) (% of vehicle control); higher = more surviving cells
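Wherever hypodiploid nuclei frequency (% of nucleated events) is given: hypodiploid nuclei gated on a flow cytometer with 488 nm excitation after SYTOX Green staining, cultures at 37 °C, positive controls vinblastine without S9 and cyclophosphamide with S9.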
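Wherever micronucleus frequency (% of nucleated events) is given: cells lysed with nuclei stained by SYTOX Green, then micronucleus-gated events counted against nucleated events by flow cytometry with 488 nm excitation.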
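Wherever relative survival (nuclei to bead ratio vs DMSO control) is given: Lysed-cell nuclei stained with SYTOX Green and counted against counting beads by flow cytometry at 488 nm excitation, with vinblastine (no S9) and cyclophosphamide (plus S9) as positive controls.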

COc1ccc2c(c1)c(CC(=O)O)c(C)n2C(=O)c1ccc(Cl)cc1 [Indomethacin]
Conditions	hypodiploid nuclei frequency, CHO-K1 [2] [%]	micronucleus frequency, CHO-K1 [1] [%]	relative survival, CHO-K1 [3]
concentration: 4.5 (µM), S9 metabolic activation: with S9, exposure time: 3-4 hours	0.16	1.2	109
concentration: 4.5 (µM), S9 metabolic activation: without S9, exposure time: 24 hours	0.62	1.9	113
concentration: 5.63 (µM), S9 metabolic activation: with S9, exposure time: 3-4 hours	0.22	1.16	108
concentration: 5.63 (µM), S9 metabolic activation: without S9, exposure time: 24 hours	0.42	1.78	112
concentration: 7.04 (µM), S9 metabolic activation: with S9, exposure time: 3-4 hours	0.16	1.32	123
concentration: 7.04 (µM), S9 metabolic activation: without S9, exposure time: 24 hours	0.54	1.5	92.8
concentration: 8.8 (µM), S9 metabolic activation: with S9, exposure time: 3-4 hours	0.2	1.14	140
concentration: 8.8 (µM), S9 metabolic activation: without S9, exposure time: 24 hours	0.44	1.46	130
concentration: 11 (µM), S9 metabolic activation: with S9, exposure time: 3-4 hours	0.18	0.98	137
concentration: 11 (µM), S9 metabolic activation: without S9, exposure time: 24 hours	0.52	1.62	124
concentration: 13.7 (µM), S9 metabolic activation: with S9, exposure time: 3-4 hours	0.16	1.06	152
concentration: 13.7 (µM), S9 metabolic activation: without S9, exposure time: 24 hours	0.46	1.12	117
concentration: 17.2 (µM), S9 metabolic activation: with S9, exposure time: 3-4 hours	0.16	1.42	176
concentration: 17.2 (µM), S9 metabolic activation: without S9, exposure time: 24 hours	0.5	1.24	107
concentration: 21.5 (µM), S9 metabolic activation: with S9, exposure time: 3-4 hours	0.24	1.44	158
concentration: 21.5 (µM), S9 metabolic activation: without S9, exposure time: 24 hours	0.66	1.32	108
concentration: 26.8 (µM), S9 metabolic activation: with S9, exposure time: 3-4 hours	0.24	1.1	112
concentration: 26.8 (µM), S9 metabolic activation: without S9, exposure time: 24 hours	0.56	1.4	117
concentration: 33.6 (µM), S9 metabolic activation: with S9, exposure time: 3-4 hours	0.16	1.16	97.9
concentration: 33.6 (µM), S9 metabolic activation: without S9, exposure time: 24 hours	0.44	1.56	96.3
concentration: 41.9 (µM), S9 metabolic activation: with S9, exposure time: 3-4 hours	0.3	1.08	116
concentration: 41.9 (µM), S9 metabolic activation: without S9, exposure time: 24 hours	0.58	2.02	113
concentration: 52.4 (µM), S9 metabolic activation: with S9, exposure time: 3-4 hours	0.2	1.36	111
concentration: 52.4 (µM), S9 metabolic activation: without S9, exposure time: 24 hours	0.46	1.32	114
concentration: 65.5 (µM), S9 metabolic activation: with S9, exposure time: 3-4 hours	0.2	1.58	98.8
concentration: 65.5 (µM), S9 metabolic activation: without S9, exposure time: 24 hours	0.6	2.02	117
concentration: 81.9 (µM), S9 metabolic activation: with S9, exposure time: 3-4 hours	0.12	0.88	114
concentration: 81.9 (µM), S9 metabolic activation: without S9, exposure time: 24 hours	0.62	1.56	134
concentration: 102 (µM), S9 metabolic activation: with S9, exposure time: 3-4 hours	0.18	1.18	124
concentration: 102 (µM), S9 metabolic activation: without S9, exposure time: 24 hours	0.68	1.5	96.9
concentration: 128 (µM), S9 metabolic activation: with S9, exposure time: 3-4 hours	0.14	0.98	118
concentration: 128 (µM), S9 metabolic activation: without S9, exposure time: 24 hours	0.62	1.82	135
concentration: 160 (µM), S9 metabolic activation: with S9, exposure time: 3-4 hours	0.16	1.76	105
concentration: 160 (µM), S9 metabolic activation: without S9, exposure time: 24 hours	0.76	1.52	98.6
concentration: 200 (µM), S9 metabolic activation: with S9, exposure time: 3-4 hours	0.08	1.52	115
concentration: 200 (µM), S9 metabolic activation: without S9, exposure time: 24 hours	0.7	1.68	93.4
